The source of these data is PMC4336329 (PLoS ONE, 2015).

About 14,000 (4.5%) of roughly 310,000 compounds showed an effect of 50% or more. The effect is printed as a negative number. The list shows a part of the results.
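Further: peak tail current of the secondary pulse compared with the same well before compound.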

Sequence of human ether-à-go-go-related gene (hERG) potassium channel (Q12809 whole entry, looked up): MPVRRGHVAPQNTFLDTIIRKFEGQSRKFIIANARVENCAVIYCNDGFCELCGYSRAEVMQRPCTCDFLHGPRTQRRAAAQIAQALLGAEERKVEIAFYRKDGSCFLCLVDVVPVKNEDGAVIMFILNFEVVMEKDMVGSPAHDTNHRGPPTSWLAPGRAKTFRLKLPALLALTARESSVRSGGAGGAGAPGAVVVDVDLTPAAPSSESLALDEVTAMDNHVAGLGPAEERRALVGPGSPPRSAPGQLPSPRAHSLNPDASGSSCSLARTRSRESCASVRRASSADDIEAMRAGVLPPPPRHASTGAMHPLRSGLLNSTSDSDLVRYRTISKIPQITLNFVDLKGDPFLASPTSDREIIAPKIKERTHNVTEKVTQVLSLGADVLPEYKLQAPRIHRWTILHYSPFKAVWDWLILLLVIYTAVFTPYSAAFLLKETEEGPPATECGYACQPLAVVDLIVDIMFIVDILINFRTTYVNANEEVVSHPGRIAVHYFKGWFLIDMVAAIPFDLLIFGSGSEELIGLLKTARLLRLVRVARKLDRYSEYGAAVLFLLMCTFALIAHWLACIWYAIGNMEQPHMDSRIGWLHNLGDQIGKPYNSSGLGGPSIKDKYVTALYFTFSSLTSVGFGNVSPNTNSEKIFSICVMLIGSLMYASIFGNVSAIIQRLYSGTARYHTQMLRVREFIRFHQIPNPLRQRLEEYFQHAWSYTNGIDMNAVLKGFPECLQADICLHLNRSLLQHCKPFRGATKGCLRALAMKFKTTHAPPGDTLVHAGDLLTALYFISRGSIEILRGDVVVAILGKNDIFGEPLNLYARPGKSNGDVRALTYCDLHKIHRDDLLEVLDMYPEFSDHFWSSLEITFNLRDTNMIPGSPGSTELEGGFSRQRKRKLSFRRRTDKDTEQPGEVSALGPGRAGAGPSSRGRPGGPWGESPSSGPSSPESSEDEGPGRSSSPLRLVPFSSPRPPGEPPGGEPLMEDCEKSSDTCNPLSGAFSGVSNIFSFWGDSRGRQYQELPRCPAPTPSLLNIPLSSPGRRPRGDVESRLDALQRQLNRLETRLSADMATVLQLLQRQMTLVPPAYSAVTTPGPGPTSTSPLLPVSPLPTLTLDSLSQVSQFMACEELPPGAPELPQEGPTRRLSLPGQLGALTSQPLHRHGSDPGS

The assay has as its target human ether-à-go-go-related gene (hERG) potassium channel (human, UniProt Q12809). In words: primary screen, population patch clamp on CHO cells stably expressing hERG.
In the case of `Cc1ccc(OCCNC(=O)c2ccco2)cc1C`, the “hERG current change (%, negative = inhibition) at 10uM” value worked out at 7.8%. As for `Cc1cc(OC(=O)c2ccccc2Br)cc(=O)n1C`, the “hERG current change (%, negative = inhibition) at 10uM” value was -17.5%. As for `Cc1cc(=O)[nH]c(N/N=C/c2cccs2)n1`, the figure is -3.8%; as for `COC(=O)c1cc(Br)c(=O)n(Cc2ccncc2)c1`, -1.41%. The figure for `Cl.NC(Cc1ccccc1)Cc1ccccc1` is -2.85%.

On to `CCOC(=O)Cn1c(=O)oc2ccc(C)cc21`, for which the “hERG current change (%, negative = inhibition) at 10uM” value is 1.49%. The figure for `Cc1csc(=O)n1CCC(=O)OCC(=O)NCc1ccc(Cl)cc1Cl` is 0.351%; for `Cc1ccc2cc(CN(CCCN(C)C)C(=O)NCc3ccccc3)c(=O)[nH]c2c1C` it is -34.1%; for `CCOC(=O)c1c(S(=O)(=O)NCCc2cccs2)c(C)n(C)c1C` it is -6.23%.

With `Nc1ccccc1SCc1ccccc1Cl`, the “hERG current change (%, negative = inhibition) at 10uM” value came out at 2.35%.

For the compound `N#C/C(=C(/O)CSc1ccccn1)c1nc2ccccc2s1`, the “hERG current change (%, negative = inhibition) at 10uM” value was found to be 11.8%. As for `O=C(NC(=S)Nc1ccccc1[N+](=O)[O-])c1ccco1`, the figure is 2.35%; as for `CC(=O)Nc1ccc(NC(=O)C(C)OC(=O)CCCOc2ccc(Cl)cc2C)cc1` (centres unmarked), 14.7%; as for `O=C(c1ccc([N+](=O)[O-])s1)N1CCN(c2ccccn2)CC1`, -20.4%. As for `Cc1ccc(CSc2nc3ccccc3c(=O)n2C)cc1`, the figure is 28.6%; as for `Cc1nn(-c2ccccc2)c(Cl)c1C(=O)NNC(=O)c1ccccc1O`, -2.09%. As for `COc1cc(/C=C/C(=O)OCC(=O)N2CCCCCC2)ccc1OCC#N`, the figure is -10.6%. Consider `Fc1ccc(N2N=C(c3cccs3)CC2c2ccco2)c(F)c1` (centres unmarked), for which the “hERG current change (%, negative = inhibition) at 10uM” value is listed as -3.53%.

With `CC(=O)c1cc2c(cc1NC(=O)c1cccc(S(=O)(=O)N3CCN(C)CC3)c1)OCO2`, the “hERG current change (%, negative = inhibition) at 10uM” value was found to be 5.02%. As for `CCOc1cccc(NC(=O)/C(C#N)=C\c2cn(CC(=O)O)c3ccccc23)c1`, the figure is 7.55%; as for `C[n+]1cccc(CNC(=O)/C=N/O)c1.[I-]`, 17%. The figure for `C=CCNc1nc(N)c([N+](=O)[O-])c(NC2CCCCC2)n1` is 9.84%; for `O=C(COC(=O)C1CC2CCCC(C1)C2=O)NC(=O)c1ccccc1` (centres unmarked) it is 1.03%; for `Cc1cccc2c1cnn2C(=O)Nc1ccccc1Br` it is 22.4%.

Regarding `CC(C)CC(=O)NC(=S)Nc1ccccc1N1CCCC1`, the “hERG current change (%, negative = inhibition) at 10uM” value was -2.16%. As for `O=C(COc1ccc2ccccc2c1)Nc1nc2ccccc2[nH]1`, the figure is -3.95%; as for `CSCCC(NC(=O)c1ccccc1)C(=O)OCC(=O)Nc1ccc(C)c(Cl)c1` (centres unmarked), -8.55%; as for `Cn1c(=O)c2c(nc(NCCNC(=O)c3ccco3)n2Cc2ccccc2Cl)n(C)c1=O`, 14%. As for `Cn1ccnc1C(O)c1ccc(OCc2ccccc2)cc1` (centres unmarked), the figure is 4.19%; as for `COc1ccc(C2Nc3ccccc3C(=O)N2c2ccc(C)cc2)cc1Cn1nnc2ccccc21` (centres unmarked), -5.66%; as for `COc1ccccc1NC(=S)NCc1ccco1`, -9.3%.

As for `CCOC(=O)N/N=C(\C)c1ccc(C)o1`, the “hERG current change (%, negative = inhibition) at 10uM” value was 21.1%. As for `CCSc1nnc(NC(=O)CSc2nnc(CNC(=O)c3ccc(OC)cc3)o2)s1`, the figure is 2.97%. The figure for `Cc1noc(C)c1S(=O)(=O)N(CCc1ccccc1)Cc1ccccc1` is -4%; for `Cc1cc(C)c(NC(=O)Cn2nnc(C(=O)NCc3cccs3)c2N)c(C)c1` it is 20%; for `Cc1ccc(C(=O)O)c(C(=O)Nc2nc3ccccc3s2)c1` it is -0.925%. As for `O=C(c1ccco1)N(CCO)Cc1cc2cc3c(cc2[nH]c1=O)OCO3`, the figure is 18.5%; as for `CCCn1c(SCC(=O)NNC(=O)c2ccc(OC)cc2)nnc1C(C)C`, 20.6%. Turning to `COc1ccc(/C(O)=C2/C(=O)C(=O)N(CCN3CCOCC3)C2c2ccccn2)cc1` (centres unmarked), the “hERG current change (%, negative = inhibition) at 10uM” value amounted to 0.566%.

Consider `O=C(NCCc1ccccc1)c1nc2nc(-c3cccs3)cc(C(F)(F)F)n2n1`, for which the “hERG current change (%, negative = inhibition) at 10uM” value is -45.5%. As for `O=C(OCCN(CCOC(=O)c1ccncc1)S(=O)(=O)c1cccs1)c1ccncc1`, the figure is -77.3%. The figure for `CCN(CC)S(=O)(=O)c1ccc(N2CCOCC2)c(NC(=O)CCOc2ccccc2)c1` is -36.9%.

As to `O=C(CCN1C(=O)C2C3C=CC(C4CC34)C2C1=O)Oc1ccc(Br)cc1` (centres unmarked), the “hERG current change (%, negative = inhibition) at 10uM” value amounted to 20.4%. The figure for `Cc1ccsc1C1CC(=O)OC2=C1C(=O)CC(C)(C)C2` (centres unmarked) is 2.08%; for `COCCn1c(SCc2nc3ccccc3c(=O)[nH]2)nc2ccccc2c1=O` it is -23.7%; for `COc1ccc(CCNC(=O)C2CCN(S(=O)(=O)N3CCOCC3)CC2)cc1OC` it is -11%.

Consider `CC(C)(C)CC(C)(C)NC1=CC(=O)OC12CCCCC2`, for which the “hERG current change (%, negative = inhibition) at 10uM” value turned out to be 10.4%. The figure for `CSc1ccc(CCCCCCOC(=O)C(C)(C)C)cc1` is 3.95%. As for `S=C(NCCc1cccc(Cl)c1)NCc1ccccc1`, the figure is -9.71%; as for `C/C(Cl)=C\Cn1c(Nc2ccccc2)nc2c1c(=O)n(C)c(=O)n2C`, 1.86%; as for `CCOC(=O)C1=C(COC(=O)c2ccc(C)s2)NC(=O)NC1C` (centres unmarked), -5.32%. `CCOc1ccccc1NC(=O)N1CCCc2ccccc21`: the “hERG current change (%, negative = inhibition) at 10uM” value was 3.14%.

Consider `O=C(COc1cccc2c1CCN(Cc1ccccc1F)C2=O)N1CCCCC1`, for which the “hERG current change (%, negative = inhibition) at 10uM” value is reported as -43.4%.

On to `COc1cc(/C=N\NC(=O)C2COc3ccccc3O2)cc(OC)c1O` (centres unmarked), for which the “hERG current change (%, negative = inhibition) at 10uM” value was -23.3%.

With `C=CCn1c(-c2ccc(F)cc2)n[nH]c1=S`, the “hERG current change (%, negative = inhibition) at 10uM” value turned out to be 25.3%.

As for `COC(=O)C1=C(c2cccc(C#N)c2)C[C@@H]2CC[C@H]1N2C(=O)N1CCOCC1`, the “hERG current change (%, negative = inhibition) at 10uM” value is 6.41%.

As for `CCOC(=O)CNCCC(=O)c1ccc(Br)cc1`, the “hERG current change (%, negative = inhibition) at 10uM” value was -11.6%. With `O=C(O)CC1C(=O)NCCN1C/C=C/c1ccccc1` (centres unmarked), the “hERG current change (%, negative = inhibition) at 10uM” value was found to be 6.2%. With `COc1ccccc1OCCOc1ccc(/C=C2\C(=N)N3N=C(S(C)(=O)=O)SC3=NC2=O)cc1`, the “hERG current change (%, negative = inhibition) at 10uM” value came out at 12%.
